From PubChem BioAssay AID1030 (National Center for Advancing Translational Sciences (NCATS), 2008)
Values joined by “and” are separate entries in the source; they are usually repeats but may differ in a detail not shown here. Equal entries are not always repeated. Screen size: about 220,000 compounds; about 16,000 (7.3%) were called active. This list was built around the results that the source calls inconclusive (neither active nor inactive); the mix of calls is not that of the screen. The call rests on the fitted dose curve; in most records, active means well fitted inhibition curve with a large enough effect (not every such curve was filed as active); inconclusive means small, poorly fitted or top-dose-only effect, or another doubt; inactive means no such curve, though single readings can be large or run the other way. Where the call is inconclusive, the potency comes from a doubtful curve fit.

What follows are compounds tested against Aldehyde dehydrogenase 1A1 (Homo sapiens) (UniProt P00352) (assay: qHTS Assay for Inhibitors of Aldehyde Dehydrogenase 1 (ALDH1A1)). Details: Purified ALDH1A1, NADH fluorescence, propionaldehyde substrate; series mostly up to 75.3 µM; activity, negative = inhibition: at the top concentration.
UniProt P00352, sequence (P00352 whole entry, looked up): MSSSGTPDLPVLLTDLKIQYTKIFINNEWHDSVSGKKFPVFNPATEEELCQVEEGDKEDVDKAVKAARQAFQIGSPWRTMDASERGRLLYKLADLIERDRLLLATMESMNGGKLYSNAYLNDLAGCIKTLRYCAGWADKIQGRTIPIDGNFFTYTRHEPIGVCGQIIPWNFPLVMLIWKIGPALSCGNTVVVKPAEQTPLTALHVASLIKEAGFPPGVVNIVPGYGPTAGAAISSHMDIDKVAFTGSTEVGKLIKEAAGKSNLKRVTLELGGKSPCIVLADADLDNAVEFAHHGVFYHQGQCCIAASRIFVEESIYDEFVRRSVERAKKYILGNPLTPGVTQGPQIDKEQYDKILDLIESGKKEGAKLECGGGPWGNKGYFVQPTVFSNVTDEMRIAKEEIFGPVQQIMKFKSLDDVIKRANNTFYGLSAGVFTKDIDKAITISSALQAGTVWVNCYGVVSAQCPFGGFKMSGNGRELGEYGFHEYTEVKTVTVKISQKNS
Potency means the concentration at half of the fitted maximal effect; tags describe the fitted curve by direction and shape.
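Wherever activity, negative = inhibition is given: plate controls were no enzyme wells and a reference inhibitor.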

SMILES | Potency | activity, negative = inhibition
CCC(c1nnnn1C(C)(C)CC)N(CCCO)Cc1cc2cc(C)cc(C)c2[nH]c1=O (stereo not drawn) | inconclusive: 12.6 µM [inhibitor, partial curve] | 
O=C(CNCC1CCCO1)NCc1ccco1 (stereo not drawn) | inconclusive: 7.08 µM [inhibitor, single point] | 
Cc1sc(NC(=O)COc2cccc(-n3cnnn3)c2)c(C#N)c1C | inconclusive: 39.8 µM [inhibitor, single point] | 
CN(C)CCNC(=O)C12CC3(C)CC(C)(CC(C)(C3)C1)C2 |  | inactive: 3.71%
Cc1ccc(Nc2nc(N)nc(CN3CCN(Cc4ccc5c(c4)OCO5)CC3)n2)cc1Cl | inconclusive: 17.8 µM [inhibitor, partial curve] | 
CCOc1cc(C(=O)Nc2ccccc2F)cc(Br)c1OCC | inconclusive: 11.2 µM [inhibitor, partial curve] | 
COc1ccc(CNC(=S)NCc2ccc(OC(C)C)cc2)cc1 | active: 14.1 µM | 
CC(=NCCc1ccccc1)C1=C(O)COC1=O |  | inactive: 15%
Cc1cc2cc(CN(Cc3ccco3)C(=O)NCc3ccccc3)c(=O)[nH]c2cc1C | inconclusive: 37.7 µM [inhibitor, single point] | 
CCNC(=S)Nc1ccc(Cl)cc1Cl |  | inactive: -5.25%
CCNc1nc(NC(C)C)nc(N(n2cnnc2)S(=O)(=O)c2ccc(C)cc2)n1 | active: 2.24 µM | 
O=C(COC(=O)c1cccnc1)c1ccc(Cl)c(Cl)c1 | inconclusive: 39.8 µM [inhibitor, single point] | 
CCN(CC)C(=O)CSC1=C(C#N)C(c2ccco2)C(C(=O)OCCOC)=C(C)N1 (stereo not drawn) | inconclusive: 35.5 µM [inhibitor, single point] | 
N=c1oc2ccccc2cc1C(=O)N/N=C/c1ccccc1 | inconclusive: 35.5 µM [inhibitor, single point] | 
CCn1c(=O)c2c(nc3n2CC(C)CN3CCc2ccccc2)n(C)c1=O (stereo not drawn) | inconclusive: 39.8 µM [inhibitor, single point] | 
O=C(c1cccc(Cl)c1)N1CCN(c2ccccn2)CC1 | inconclusive: 25.1 µM [inhibitor, single point] | 
CCOCCCn1c(SCc2nc3sc(C(=O)O)c(C)c3c(=O)[nH]2)nnc1-c1ccc(Cl)cc1 | inconclusive: 2 µM [inhibitor, partial curve] | 
C/C(=N/NC(=O)c1cccc(C)c1)c1c(O)cc(C)oc1=O | active: 31.6 µM | 
C/C(=N\NC(=O)CC1N=C(Cc2ccccc2)NNC1=O)c1ccc(Br)cc1 (stereo not drawn) |  | inactive: 2.59%
O=C(O)CCCCn1c(SCC(=O)Nc2ccccc2C(F)(F)F)nc2ccsc2c1=O |  | inactive: -10.9%
Cc1ccc(S(=O)(=O)/N=C2/NC(=O)/C(=C/c3ccccn3)S2)cc1 |  | inactive: -0.759%
Cc1nn(C)c(C(=O)NNC(=S)NC2CCCCC2)c1Cl | inconclusive: 39.8 µM [inhibitor, single point] | 
O=C(CCN1C(=O)c2ccccc2C1=O)NCCC1=CCCCC1 | inconclusive: 35.5 µM [inhibitor, partial curve] | 
CC(=O)Nc1ccc(NC(=O)Cc2sc(-c3cccnc3)nc2-c2ccc(C)cc2)cc1 |  | inactive: 4.06%

SMILES | Potency | activity, negative = inhibition
CCOC(=O)c1nnn(-c2nonc2N)c1CSc1nnc(N)s1 |  | inactive: -0.302%
Cc1cc(C)nc(N2CCN(c3nnnn3-c3ccccc3)CC2)n1 | active: 22.4 µM | 
COCCNCC(=O)C12CC3CC(CC(C3)C1)C2 | active: 10 µM | 
CC(=O)c1ccccc1OCCOc1ncnc2sccc12 |  | inactive: -0.311%
COc1ccc(N=C(C)C2=C(O)c3ccccc3C2=O)cc1 |  | inactive: -4.21%
COc1ccc(-c2nnc(SCC(=O)N(Cc3ccccc3)C(C)(C)C)o2)cc1OC | inconclusive: 3.55 µM [inhibitor, full curve] | 
COc1ccc(S(=O)(=O)N(C)C)cc1NCC(=O)Nc1ccc(F)cc1F | inconclusive: 35.5 µM [inhibitor, single point] | 
CC(C)c1cccc2cc3c(nc12)-c1cccc(=O)n1C3 | inconclusive: 22.4 µM [inhibitor, partial curve] | 
COCCCNC(=O)c1cc2cc([N+](=O)[O-])cc(OC)c2oc1=O | inconclusive: 2.82 µM [inhibitor, full curve] | 
Cc1cccc2c(=O)c(C(=O)N3CCCCCC3)c[nH]c12 | inconclusive: 39.8 µM [inhibitor, single point] | 
Cc1cc(NS(=O)(=O)c2ccc(NC(=O)C(C)Oc3ccc4c(C)cc(=O)oc4c3)cc2)no1 (stereo not drawn) | inconclusive: 25.1 µM [inhibitor, single point] | 
COCCNc1nc(C)nc2c1nc(-c1ccccc1)n2CCN1CCCCC1 | inconclusive: 25.1 µM [inhibitor, partial curve] | 
C=C(C)C(=O)/C=C/c1ccc(C(F)(F)F)cc1 |  | inactive: 10.1%
O=C(NCc1ccco1)Nc1ccc2snnc2c1 | inconclusive: 39.8 µM [inhibitor, single point] | 
CCCCCCCCCCCCC/C=C/[C@@H](O)C(CO)NC(C)=O (stereo partly drawn) |  | inactive: -0.703%
OC(CN=c1sc2ccccc2n1CC(O)COc1ccccc1)COc1ccccc1 (stereo not drawn) | active: 2.82 µM | 
Cc1ccc(C2CC(c3cccs3)=NN2S(=O)(=O)c2ccc(C)cc2)cc1 (stereo not drawn) |  | inactive: -3.9%
COc1ccc2c(=O)cc(-c3ccccc3)oc2c1O | inconclusive: 25.1 µM [inhibitor, partial curve] | 
CCOC(=O)C1CCN(C(=O)CSc2ccccc2)CC1 | inconclusive: 39.8 µM [inhibitor, single point] | 
CCOc1cccc(N2C(=O)CC(NNC(=O)c3ccc(Br)o3)C2=O)c1 (stereo not drawn) | active: 11.2 µM | 
CC(C)C(=O)OCc1cn(-c2ccc(Cl)c(Cl)c2)nn1 | inconclusive: 12.6 µM [inhibitor, partial curve] | 
CCS(=O)(=O)c1nn2c(N)c(/C=C3/C=CC(=O)C(OC)=C3)c(=O)nc2s1 |  | inactive: -9.21%
CCCCC(=O)NCCc1c(Cc2ccccc2)[nH]c2ccccc12 | inactive and inconclusive: 25.1 µM [inhibitor, single point] | 
COc1ccc(-c2nn(C)c(=O)c3ccccc23)cc1CNC(=O)NC1CCCCC1 | inconclusive: 37.7 µM [inhibitor, single point] | 
